Assay results: PubChem BioAssay AID588342 (National Center for Advancing Translational Sciences (NCATS), 2011)
Among all 360,000 compounds or so, about 25,000 (6.9%) were called active. Inconclusive means that the source gave no clear call. Such entries were picked first, then a sample of the others. The call rests on the fitted dose curve; in most records, active means well fitted inhibition curve with a large enough effect; inconclusive means small, poorly fitted or top-dose-only effect; inactive means flat fitted curve, though single readings scatter. Potencies beside an inconclusive call are fits to weak or partial responses and may not hold up.

target: Luciferin 4-monooxygenase (Photinus pyralis) (UniProt P08659); experiment: qHTS profiling assay for firefly luciferase inhibitor/activator using purifed enzyme and Km concentrations of substrates (counterscreen for miR-21 project); conditions: purified FLuc, luminescence inhibition; series mostly up to 57.5 µM; further: nearly all actives have a fitted effect of over 55% in size
Procedure, shortened: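 Biochemical qHTS of compounds, final roughly 60 µM downward over six points, against 10 nM purified firefly luciferase using Km concentrations of substrates (10 uM D-luciferin, 10 uM ATP) in Tris acetate pH 7.5 buffer; luminescence output.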
Potency means the concentration at half of the fitted maximal effect; tags describe the fitted curve by direction and shape.

UniProt P08659, sequence (P08659 whole entry, looked up): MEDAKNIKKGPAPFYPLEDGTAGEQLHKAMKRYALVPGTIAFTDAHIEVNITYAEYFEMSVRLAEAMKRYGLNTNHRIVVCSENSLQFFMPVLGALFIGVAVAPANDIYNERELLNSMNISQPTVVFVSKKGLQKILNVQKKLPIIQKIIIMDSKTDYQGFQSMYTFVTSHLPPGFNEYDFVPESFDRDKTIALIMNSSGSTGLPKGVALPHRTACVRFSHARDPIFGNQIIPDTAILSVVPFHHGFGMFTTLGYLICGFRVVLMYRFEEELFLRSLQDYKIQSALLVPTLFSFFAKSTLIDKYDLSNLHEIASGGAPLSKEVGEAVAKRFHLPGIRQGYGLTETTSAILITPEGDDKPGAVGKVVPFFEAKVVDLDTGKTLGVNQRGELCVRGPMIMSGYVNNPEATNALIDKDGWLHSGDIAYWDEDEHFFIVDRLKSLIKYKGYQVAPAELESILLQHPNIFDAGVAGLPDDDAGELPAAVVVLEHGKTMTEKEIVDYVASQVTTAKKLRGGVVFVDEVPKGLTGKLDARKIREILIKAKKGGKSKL

Structure (SMILES)	Potency
COc1cc(C)ccc1OCc1cc(C(=O)N2CCCCCCC2)no1	active: 21.3 µM
O=C(NCCc1ccccc1)c1ccc(Cl)nc1	active: 12 µM
Cc1ccc(C(=O)CSc2nnc(-c3ccco3)n2C)cc1	inconclusive: 26.9 µM [inhibitor, single point]
COc1cc(NS(=O)(=O)c2ccc(NC(=O)CN3C(=O)c4ccccc4C3=O)cc2)nc(OC)n1	inconclusive: 13.5 µM [inhibitor, partial curve]
CCN(CC)c1ccc(CNc2ccc3c(c2)ncn3C(C)(C)C)cc1	inconclusive: 23.9 µM [inhibitor, single point]
CN(Cc1ccccc1)c1ccc(-c2nc(-c3ccccn3)no2)cc1[N+](=O)[O-]	inconclusive: 37.9 µM [inhibitor, single point]
COc1ccc(-c2nc(CSCC(=O)NCCc3ccccc3)c(C)o2)cc1	inconclusive: 23.9 µM [inhibitor, single point]
CCCOC(=O)c1ccc(Nc2nc(C)cc(=O)[nH]2)cc1	inconclusive: 37.9 µM [inhibitor, partial curve, poor fit]
CC(=O)c1cccc(N=Cc2c(O)ccc3ccccc23)c1	inconclusive: 26.9 µM [inhibitor, partial curve, poor fit]
O=C(Nc1cccnc1)c1cc(-c2ccccc2)on1	active: 4.78 µM
O=C(O)c1ccc(N/N=C/c2ccc3ncccc3c2)cc1	active: 0.675 µM
CCc1cc(=O)oc2c3c(cc(OCC(=O)NCc4cccnc4)c12)OC(C)(C)CC3	inconclusive: 30.1 µM [inhibitor, partial curve, poor fit]
CSc1nnc(NC(=O)c2cc3ccccc3oc2=O)s1	inconclusive: 7.57 µM [inhibitor, partial curve, poor fit]
O=[N+]([O-])c1ccc(O)c(Nc2ncnc3ccc(Br)cc23)c1	inconclusive: 23.9 µM [inhibitor, partial curve, poor fit]
O=C(NCc1ccccc1)Nc1cccn(Cc2ccc(F)cc2)c1=O	inconclusive: 12 µM [inhibitor, partial curve]
CCOC(=O)c1cc(C(=O)c2cc(Br)ccc2O)coc1=N	inconclusive: 21.3 µM [inhibitor, partial curve, poor fit]
Cc1cccc(NC(=O)COc2ccc(-c3nn(C)c(=O)c4ccccc34)cc2)c1	inactive
CC(=O)Oc1ccc2occ(-c3ccccc3)c2c1	active: 19 µM
CC(=O)N1CCn2c3ccc(C)cc3c3cccc1c32	inconclusive: 37.9 µM [inhibitor, single point]
O=C(COC(=O)c1cnccn1)c1ccccc1	inconclusive: 21.3 µM [inhibitor, single point]
COCc1nn2c(N)c(C#N)cnc2c1-c1ccccc1	active: 13.5 µM
CCCNC(=O)NCCC12CC3CC(CC(C3)C1)C2	inconclusive: 26.9 µM [inhibitor, single point]
COCCCn1c(SCC(=O)N2CC(=O)Nc3ccccc32)nnc1-c1ccoc1C	inactive
COc1ccc(NC(=O)CSc2nnc(NC(=O)NC3CCCCC3)s2)cc1OC	active: 2.39 µM

Structure (SMILES)	Potency
COc1ccccc1CNC(=O)c1ccc2c(=O)n(CCCN3CCCC3=O)c(=S)[nH]c2c1	inconclusive: 21.3 µM [inhibitor, partial curve, poor fit]
CC(C)n1cnc2c(Nc3ccc(C(=O)O)cc3)nc(Cl)nc21	active: 12 µM
COc1ccc(-c2ccc(SCC(=O)c3ccccc3)nn2)cc1OC	active: 23.9 µM
COc1ccccc1-c1nc(SC)n[nH]1	inconclusive: 26.9 µM [inhibitor, partial curve, poor fit]
Cc1nc2ccc(S(=O)(=O)Nc3cccc(-c4nc5cccnc5s4)c3)cc2s1	inactive
COc1cccc(NC(=O)CN(C)C(C)C(=O)NC(C)c2ccc(Cl)cc2Cl)c1 (configuration not stated)	inactive
Cc1ccc(CNC(=O)c2c[nH]n3c(=O)c(Cc4ccc(Cl)cc4)c(C)nc23)cc1	inconclusive: 26.9 µM [inhibitor, partial curve, poor fit]
CCC1SC(=NC(=O)c2ccc(Cl)c(Cl)c2)NC1=O (configuration not stated)	active: 23.9 µM
CCOC(=O)c1cnc2c(ccc3ccccc32)c1NCCCN(C)C	active: 7.57 µM
O=C(c1cn(-c2ccccc2)nc1-c1ccc(F)cc1)N1CCOCC1	inconclusive: 23.9 µM [inhibitor, partial curve]
Cc1ccsc1/C=C1\CCc2ccccc2C1=O	active: 0.19 µM
N#CCCCSc1nnc(-c2ccccn2)o1	inconclusive: 26.9 µM [inhibitor, partial curve, poor fit]
C(=C\c1nc(-c2ccccc2)no1)/c1ccccc1	active: 1.35 µM
O=C(NCCN1C(=O)S/C(=C\c2ccc(Cl)c(Cl)c2)C1=O)c1ccc2c(c1)C(=O)N(Cc1ccncc1)C2=O	inactive
Cc1ccc(NC(=O)CCc2c(C)nn(-c3ccc(N4CCCCC4)nn3)c2C)cc1C	active: 12 µM
COc1ccccc1C(=O)Nc1ccc2c(c1)n(C)c(=O)n2C	inconclusive: 21.3 µM [inhibitor, partial curve, poor fit]
COc1ccccc1CNC(=O)c1ccc(-c2ccccc2Cl)o1	inconclusive: 26.9 µM [inhibitor, single point]
CNC(=O)c1cc2c(ccc3ccccc32)oc1=N	inconclusive: 23.9 µM [inhibitor, partial curve]
Cc1c(Br)c([N+](=O)[O-])nn1C(C)C(=O)N1CCc2ccccc2C1 (configuration not stated)	inconclusive: 21.3 µM [inhibitor, partial curve, poor fit]
COc1cc(OC)cc(C(=O)N[C@H](C(=O)OCC(=O)c2ccc(F)cc2)C(C)C)c1	active: 10.7 µM
COc1ccc(CNCCC(c2ccc3c(c2)OCO3)c2ccccc2OC)cc1 (configuration not stated)	inactive
CCCN1C(=O)/C(=C/c2ccc(C)s2)NC1=S	active: 26.9 µM
COc1cccc(NC(=O)CSc2nccn2C2CCCC2)c1	inconclusive: 23.9 µM [inhibitor, partial curve]
